# Assay results published in the supplement of paper PMC8728848.
# The other results are listed elsewhere or left out.
# B1: SpnanA (Streptococcus pneumoniae), P62575 (protein)
# chain: MVIEKEDVETNASNGQRVDLSSELDKLKKLENATVHMEFKPDAKAPAFYNLFSVSSATKKDEYFTMAVYNNTATLEGRGSDGKQFYNNYNDAPLKVKPGQWNSVTFTVEKPTAELPKGRVRLYVNGVLSRTSLRSGNFIKDMPDVTHVQIGATKRANNTVWGSNLQIRNLTVYNRALTPEEVQKRS
# Columns and labels:
# Experiment in all cases: glycan array binding signal (z-score within array); higher = stronger binding
# Details in all cases: glycan notation: IUPAC condensed, linker removed
# [1] = target: Neu5Ac(a2-3)Gal(b1-4)GlcNAc(b1-3)Gal(b1-4)GlcNAc(b1-3)Gal(b1-4)GlcNAc
# How it was run: (§1)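 The binding signal is a Z-score computed within each array and averaged over linkers. Arrays of the same protein sequence at different concentrations or buffers were also averaged together. Data originate from 3228 arrays in the Consortium for Functional Glycomics database, kept only where the protein sequence was available.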
# [2] = target: Neu5Ac(a2-3)Gal(b1-4)GlcNAc(b1-3)Gal(b1-4)[Fuc(a1-3)]GlcNAc
# How it was run: as §1
# [3] = target: Neu5Ac(a2-3)Gal(b1-4)GlcNAc(b1-3)GalNAc
# How it was run: as §1
# [4] = target: Neu5Ac(a2-3)Gal(b1-4)GlcNAc(b1-3)[Neu5Ac(a2-3)Gal(b1-4)GlcNAc(b1-6)]GalNAc
# How it was run: as §1
# [5] = target: Neu5Ac(a2-3)Gal(b1-4)GlcNAc(b1-6)GalNAc
# How it was run: as §1
# [6] = target: Neu5Ac(a2-3)Gal(b1-4)GlcNAc(b1-6)[Gal(b1-3)]GalNAc
# How it was run: as §1
# [7] = target: Neu5Ac(a2-3)Gal(b1-4)GlcNAc(b1-6)[Neu5Ac(a2-3)Gal(b1-3)]GalNAc
# How it was run: as §1
# [8] = target: Neu5Ac(a2-3)Gal(b1-4)GlcNAc6S
# How it was run: as §1
# [9] = target: Neu5Ac(a2-3)Gal(b1-4)[Fuc(a1-3)]GlcNAc
# How it was run: as §1
# [10] = target: Neu5Ac(a2-3)Gal(b1-4)[Fuc(a1-3)]GlcNAc(b1-3)Gal
# How it was run: as §1
# [11] = target: Neu5Ac(a2-3)Gal(b1-4)[Fuc(a1-3)]GlcNAc(b1-3)Gal(b1-4)GlcNAc
# How it was run: as §1
# [12] = target: Neu5Ac(a2-3)Gal(b1-4)[Fuc(a1-3)]GlcNAc(b1-3)Gal(b1-4)[Fuc(a1-3)]GlcNAc(b1-3)Gal(b1-4)[Fuc(a1-3)]GlcNAc
# How it was run: as §1
# [13] = target: Neu5Ac(a2-3)Gal(b1-4)[Fuc(a1-3)]GlcNAc(b1-3)GalNAc
# How it was run: as §1
# [14] = target: Neu5Ac(a2-3)Gal(b1-4)[Fuc(a1-3)]GlcNAc(b1-6)[Gal(b1-3)]GalNAc
# How it was run: as §1
# [15] = target: Neu5Ac(a2-3)Gal(b1-4)[Fuc(a1-3)]GlcNAc(b1-6)[Neu5Ac(a2-3)Gal(b1-3)]GalNAc
# How it was run: as §1
# [16] = target: Neu5Ac(a2-3)Gal(b1-4)[Fuc(a1-3)]GlcNAc6S
# How it was run: as §1
# [17] = target: Neu5Ac(a2-3)Gal6S(b1-4)GlcNAc
# How it was run: as §1
# [18] = target: Neu5Ac(a2-3)Gal6S(b1-4)[Fuc(a1-3)]GlcNAc
# How it was run: as §1
# [19] = target: Neu5Ac(a2-3)GalNAc
# How it was run: as §1
# [20] = target: Neu5Ac(a2-3)GalNAc(b1-4)GlcNAc
# How it was run: as §1
# [21] = target: Neu5Ac(a2-3)[GalNAc(b1-4)]Gal(b1-4)Glc
# How it was run: as §1
# [22] = target: Neu5Ac(a2-3)[GalNAc(b1-4)]Gal(b1-4)GlcNAc
# How it was run: as §1
# [23] = target: Neu5Ac(a2-3)[GalNAc(b1-4)]Gal(b1-4)GlcNAc(b1-3)GalNAc
# How it was run: as §1
# [24] = target: Neu5Ac(a2-3)[Neu5Ac(a2-6)]GalNAc
# How it was run: as §1
# [25] = target: Neu5Ac(a2-6)Gal
# How it was run: as §1
# [26] = target: Neu5Ac(a2-6)Gal(b1-3)GlcNAc(b1-3)[Gal(b1-4)GlcNAc(b1-6)]Gal(b1-4)Glc
# How it was run: as §1
# [27] = target: Neu5Ac(a2-6)Gal(b1-4)Glc
# How it was run: as §1
# [28] = target: Neu5Ac(a2-6)Gal(b1-4)GlcNAc
# How it was run: as §1
# [29] = target: Neu5Ac(a2-6)Gal(b1-4)GlcNAc(b1-2)Man(a1-3)Man(b1-4)GlcNAc(b1-4)GlcNAc
# How it was run: as §1
# [30] = target: Neu5Ac(a2-6)Gal(b1-4)GlcNAc(b1-2)Man(a1-3)[Gal(b1-4)GlcNAc(b1-2)Man(a1-6)]Man(b1-4)GlcNAc(b1-4)GlcNAc
# How it was run: as §1
# [31] = target: Neu5Ac(a2-6)Gal(b1-4)GlcNAc(b1-2)Man(a1-3)[GlcNAc(b1-2)Man(a1-6)]Man(b1-4)GlcNAc(b1-4)GlcNAc
# How it was run: as §1
# [32] = target: Neu5Ac(a2-6)Gal(b1-4)GlcNAc(b1-2)Man(a1-3)[GlcNAc(b1-2)Man(b1-4)GlcNAc(b1-2)Man(a1-6)]Man(b1-4)GlcNAc(b1-4)GlcNAc
# How it was run: as §1
# [33] = target: Neu5Ac(a2-6)Gal(b1-4)GlcNAc(b1-2)Man(a1-3)[Man(a1-6)]Man(b1-4)GlcNAc(b1-4)GlcNAc
# How it was run: as §1
# [34] = target: Neu5Ac(a2-6)Gal(b1-4)GlcNAc(b1-2)Man(a1-3)[Neu5Ac(a2-6)Gal(b1-4)GlcNAc(b1-2)Man(a1-6)]Man(b1-4)GlcNAc(b1-4)GlcNAc
# How it was run: as §1
# [35] = target: Neu5Ac(a2-6)Gal(b1-4)GlcNAc(b1-2)Man(a1-3)[Neu5Ac(a2-6)Gal(b1-4)GlcNAc(b1-2)Man(a1-6)]Man(b1-4)GlcNAc(b1-4)[Fuc(a1-6)]GlcNAc
# How it was run: as §1
# [36] = target: Neu5Ac(a2-6)Gal(b1-4)GlcNAc(b1-2)Man(a1-6)Man(b1-4)GlcNAc(b1-4)GlcNAc
# How it was run: as §1
# [37] = target: Neu5Ac(a2-6)Gal(b1-4)GlcNAc(b1-2)Man(a1-6)[Gal(b1-4)GlcNAc(b1-2)Man(a1-3)]Man(b1-4)GlcNAc(b1-4)GlcNAc
# How it was run: as §1
binder,measurement,setting,value
B1,glycan array binding signal (z-score),[1],1.52
same,glycan array binding signal (z-score),[2],-0.236
same,glycan array binding signal (z-score),[3],-0.047
same,glycan array binding signal (z-score),[4],0.179
same,glycan array binding signal (z-score),[5],-0.064
same,glycan array binding signal (z-score),[6],-0.172
same,glycan array binding signal (z-score),[7],0.233
same,glycan array binding signal (z-score),[8],3.89
same,glycan array binding signal (z-score),[9],0.549
same,glycan array binding signal (z-score),[10],0.859
same,glycan array binding signal (z-score),[11],0.351
same,glycan array binding signal (z-score),[12],-0.268
same,glycan array binding signal (z-score),[13],0.821
same,glycan array binding signal (z-score),[14],0.023
same,glycan array binding signal (z-score),[15],-0.011
same,glycan array binding signal (z-score),[16],1.2
same,glycan array binding signal (z-score),[17],2.91
same,glycan array binding signal (z-score),[18],2.44
same,glycan array binding signal (z-score),[19],0.541
same,glycan array binding signal (z-score),[20],0.228
same,glycan array binding signal (z-score),[21],-0.132
same,glycan array binding signal (z-score),[22],-0.04
same,glycan array binding signal (z-score),[23],-0.022
same,glycan array binding signal (z-score),[24],2.61
same,glycan array binding signal (z-score),[25],1.59
same,glycan array binding signal (z-score),[26],-0.258
same,glycan array binding signal (z-score),[27],1.79
same,glycan array binding signal (z-score),[28],0.98
same,glycan array binding signal (z-score),[29],-0.032
same,glycan array binding signal (z-score),[30],-0.145
same,glycan array binding signal (z-score),[31],-0.228
same,glycan array binding signal (z-score),[32],1.58
same,glycan array binding signal (z-score),[33],-0.062
same,glycan array binding signal (z-score),[34],0.367
same,glycan array binding signal (z-score),[35],0.457
same,glycan array binding signal (z-score),[36],-0.102
same,glycan array binding signal (z-score),[37],-0.151
